Reference: the RNAGym collection of RNA variant scans (doi:10.1073/pnas.2313332121)
Variants at the background level are over-represented here.

B1: TPR 5TU (parent)
chain: GGAUCUUCUCGAUCUAACAAAAAAGACAAAUCUGCCACAAAGCUUGAGAGCAUCUUCGGAUGCAGAGGCGGCAGCCUUCGGUGGCGCGAUAGCGCCAACGUUCUCAACUAUGACACGCAAAACGCGUGCUCCGUUGAAUGGAGUUUAUCAUG

Variants of: B1
Test: polymerase ribozyme fitness, log enrichment relative to wild type (log ratio); higher = more active; in vitro selection for triplet polymerase activity
Procedure, shortened: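 Streptavidin-bead capture of gel-excised extended constructs, followed by RT-PCR, closed a single triplicate in vitro selection round. That round began by annealing PCR-built, transcribed mutant libraries of each subunit of a heterodimeric triplet polymerase ribozyme with a biotinylated primer, the partner subunit and triplets, then incubating them frozen at −7 °C. After Illumina sequencing of inputs and outputs, genotypes needed ≥10 input reads and ≥1 read per output. Fitness is the base-2 logarithm of genotype enrichment over wild-type enrichment, using inverse-variance-weighted replicate averages.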

Row | Variant | polymerase ribozyme fitness (log ratio)
1 | GGAUCUUCUCGAUCUAACAAAAAAGACAAAUCUGCCACAAAGCUUGAGAGCAUCUUCGGAUGCAGAGGCGGCAGCCUUCGGUGGCGCGAUAGCGCUAACUUUCUCAACUAUGACACGCAAAACGCGUGCUCCGUUGAAUGGAGUUUAUCAUG [C96U G100U] | -3.13
2 | GGAUCUUCUCGAUCUAACAAAAAAGACAAAUCUGCCACAAAGCUUGAGAGCAUCUUCGGAUGCAGAGGCGGCAGCCUUCGGUGGCGCGAUAGCGCUAACGUUCUCAUCUAUGACACGCAAAACGCGUGCUCCGUUGAAUGGAGUUUAUCAUG [C96U A107U] | -3.35
3 | GGAUCUUCUCGAUCUAACAAAAAAGACAAAUCUGCCACAAAGCUUGAGAGCAUCUUCGGAUGCAGAGGCGGCAGCCUUCGGUGGCGCGAUAGCGCUAACGUUCUCAACUAUGACACGCCAAACGCGUGCUCCGUUGAAUGAAGUUUAUCAUG [C96U A119C G141A] | 0.872
4 | GGAUCUUCUCGAUCUAACAAAAAAGACAAAUCUGCCACAAAGCUUGAGAGCAUCUUCGGAUGCAGAGGCGGCAGCCUUCGGUGGCGCGAUAGCGCCAUCGUUCUCAACUAUGACACGCAAAACGCGUGCUCCGUUGAGUGGAGUUUAUCAUG [A98U A138G] | -3.32
5 | GGAUCUUCUCGAUCUAACAAAAAAGACAAAUCUGCCACAAAGCUUGAGAGCAUCUUCGGAUGCAGAGGCGGCAGCCUUCGGUGGCGCGAUAGCGCCAGCGUUCUCAACUAUGACACGCAAAACGCGUGCUCCGUUGACUGGAGUUUAUCAUG [A98G A138C] | ≤ -4.2
6 | GGAUCUUCUCGAUCUAACAAAAAAGACAAAUCUGCCACAAAGCUUGAGAGCAUCUUCGGAUGCAGAGGCGGCAGCCUUCGGUGGCGCGAUAGCGCUUACGUUCUCAACUAUGACACGCAAAACGCGUGCUCCGGUGACUGGAGUUUAUCAUG [C96U A97U U134G A138C] | ≤ -4.2
7 | GGAUCUUCUCGAUCUAACAAAAAAGACAAAUCUGCCACAAAGCUUGAGAGCAUCUUCGGAUGCAGAGGCGGCAGCCUUCGGUGGCGCGAUAGCGCUAACGUUCUCAACUUUGACACGCAAAACGCGUGCUCCGUUGAAUGGAGUUUAUCAUG [C96U A110U] | -3.6
8 | GGAUCUUCUCGAUCUAACAAAAAAGACAAAUCUGCCACAAAGCUUGAGAGCAUCUUCGGAUGCAGAGGCGGCAGCCUUCGGUGGCGCGAUAGCGCUAACGUUCUCAACUAUGACACGCAAAACGCGUGCUCCGUUGAAUGGAGUUUAUUAUG [C96U C149U] | -0.874
9 | GGAUCUUCUCGAUCUAACAAAAAAGACAAAUCUGCCACAAAGCUUGAGAGCAUCUUCGGAUGCAGAGGCGGCAGCCUUCGGUGGCGCGAUAGCGCAAACGUUCUCAACUAUCACACGCAAAACGCGUGCUCCGUUGAAUGGAGUUUAUCAUG [C96A G112C] | -3.31
10 | GGAUCUUCUCGAUCUAACAAAAAAGACAAAUCUGCCACAAAGCUUGAGAGCAUCUUCGGAUGCAGAGGCGGCAGCCUUCGGUGGCGCGAUAGCGCCUACGUUCUCAACUAUGACACGCAAAACGCGUGCUCCGUUGAAUGGAGUUUAUCAGG [A97U U151G] | ≤ -4.2
11 | GGAUCUUCUCGAUCUAACAAAAAAGACAAAUCUGCCACAAAGCUUGAGAGCAUCUUCGGAUGCAGAGGCGGCAGCCUUCGGUGGCGCGAUAGCGCGAACGUUCUCAACUAUGACACGCAAAACGCGUGCUCCGUUGAUUGGAGUUUAUCAUG [C96G A138U] | ≤ -4.2
12 | GGAUCUUCUCGAUCUAACAAAAAAGACAAAUCUGCCACAAAGCUUGAGAGCAUCUUCGGAUGCAGAGGCGGCAGCCUUCGGUGGCGCGAUAGCGCAAACGUUCUCAACUAUGACACGCAAAACGCGUGCUCCGUUAAAUGGAGUUUAUCAUG [C96A G136A] | -0.205
13 | GGAUCUUCUCGAUCUAACAAAAAAGACAAAUCUGCCACAAAGCUUGAGAGCAUCUUCGGAUGCAGAGGCGGCAGCCUUCGGUGGCGCGAUAGCGCGAACGUUCUCAACUAUGACACGCAAAACGCGUGCUCCGUUGAAUGGAGUUUAUCAUU [C96G G152U] | -2.77
14 | GGAUCUUCUCGAUCUAACAAAAAAGACAAAUCUGCCACAAAGCUUGAGAGCAUCUUCGGAUGCAGAGGCGGCAGCCUUCGGUGGCGCGAUAGCGCAAACGUUCUCAACUAUGACACGCAAAACGCGUGCUCCGUUGAAUGGAGAUUAUCAUG [C96A U144A] | -0.177
15 | GGAUCUUCUCGAUCUAACAAAAAAGACAAAUCUGCCACAAAGCUUGAGAGCAUCUUCGGAUGCAGAGGCGGCAGCCUUCGGUGGCGCGAUAGCGCUAACGUUCUCAACUAUCACACGCAAAACGCGUGCUCCGUGGAAUAUAGUUUAUCAUG [C96U G112C U135G G140A G141U] | ≤ -4.2
16 | GGAUCUUCUCGAUCUAACAAAAAAGACAAAUCUGCCACAAAGCUUGAGAGCAUCUUCGGAUGCAGAGGCGGCAGCCUUCGGUGGCGCGAUAGCGCGAACGUUCUCAAUUAUGACACGCAAAACGCGUGCUCCGUUGAAUGGAGUUUAUCAUG [C96G C108U] | -2.5
17 | GGAUCUUCUCGAUCUAACAAAAAAGACAAAUCUGCCACAAAGCUUGAGAGCAUCUUCGGAUGCAGAGGCGGCAGCCUUCGGUGGCGCGAUAGCGCGAACGUUCUCAACUUUGACACGCAAAACGCGUGCUCCGGUGAAUGGAGUCUAUCAUG [C96G A110U U134G U145C] | ≤ -4.2
18 | GGAUCUUCUCGAUCUAACAAAAAAGACAAAUCUGCCACAAAGCUUGAGAGCAUCUUCGGAUGCAGAGGCGGCAGCCUUCGGUGGCGCGAUAGCGCGAACUUUCUCAACUAUGACACGCAAAACGCGUGCUCCGUUGAAUGGAGUUUAUCAUG [C96G G100U] | -3.95
19 | GGAUCUUCUCGAUCUAACAAAAAAGACAAAUCUGCCACAAAGCUUGAGAGCAUCUUCGGAUGCAGAGGCGGCAGCCUUCGGUGGCGCGAUAGCGCAAACGUUCACAACUAUGACACGCAAAACCCGUGCUCCGUUGAAUGGAGUUUAUCAUG [C96A U104A G124C] | -1.19

Row | Variant | polymerase ribozyme fitness (log ratio)
20 | GGAUCUUCUCGAUCUAACAAAAAAGACAAAUCUGCCACAAAGCUUGAGAGCAUCUUCGGAUGCAGAGGCGGCAGCCUUCGGUGGCGCGAUAGCGCGAACGUUCUGAACUAUGACACGCAAAACGCGUGCUCCGUUGAAUGGAGUUUAUCAUG [C96G C105G] | -1.92
21 | GGAUCUUCUCGAUCUAACAAAAAAGACAAAUCUGCCACAAAGCUUGAGAGCAUCUUCGGAUGCAGAGGCGGCAGCCUUCGGUGGCGCGAUAGCGCAAACGUUCUCAACUAUGACACGCAAAACGCGUGCUCCGUGGAAUGGAGGUUAUCAUG [C96A U135G U144G] | ≤ -4.2
22 | GGAUCUUCUCGAUCUAACAAAAAAGACAAAUCUGCCACAAAGCUUGAGAGCAUCUUCGGAUGCAGAGGCGGCAGCCUUCGGUGGCGCGAUAGCGCCAUCCUUCUUAACUGUGACACGCAAAACGCGUGCUCCGUUGAAUGGAGUUUAUCAUG [A98U G100C C105U A110G] | ≤ -4.2
23 | GGAUCUUCUCGAUCUAACAAAAAAGACAAAUCUGCCACAAAGCUUGAGAGCAUCUUCGGAUGCAGAGGCGGCAGCCUUCGGUGGCGCGAUAGCGCUCACGUUCUCAACUAUGACACGCAAAACGCGUGCUCCGUUGAAUGGAGUUUAUCAUG [C96U A97C] | 0.0607
24 | GGAUCUUCUCGAUCUAACAAAAAAGACAAAUCUGCCACAAAGCUUGAGAGCAUCUUCGGAUGCAGAGGCGGCAGCCUUCGGUGGCGCGAUAGCGCAAACGUUCUCAACUAUGACACUCAAAACGCGUGCUCCGUUGAUUGGAGUUUAUCAUG [C96A G117U A138U] | ≤ -4.2
25 | GGAUCUUCUCGAUCUAACAAAAAAGACAAAUCUGCCACAAAGCUUGAGAGCAUCUUCGGAUGCAGAGGCGGCAGCCUUCGGUGGCGCGAUAGCGCCAUCGUUCUCAACUAUGACACGCAAAACGCGUGCUCCGUUCAAUGGAGUUUAUCAUG [A98U G136C] | -3.87
26 | GGAUCUUCUCGAUCUAACAAAAAAGACAAAUCUGCCACAAAGCUUGAGAGCAUCUUCGGAUGCAGAGGCGGCAGCCUUCGGUGGCGCGAUAGCGCCCACGUUCUCAACUAUGACACGCAAAACGCGUGCUCCGUUGAAUGGAGUUUAUCAUG [A97C] | 0.773
27 | GGAUCUUCUCGAUCUAACAAAAAAGACAAAUCUGCCACAAAGCUUGAGAGCAUCUUCGGAUGCAGAGGCGGCAGCCUUCGGUGGCGCGAUAGCGCCUACGUUCUCAACUAUGACACGCAAAACGCGUGCUCCGUUGAAUGCAUUUUAUCAUG [A97U G141C G143U] | ≤ -4.2
28 | GGAUCUUCUCGAUCUAACAAAAAAGACAAAUCUGCCACAAAGCUUGAGAGCAUCUUCGGAUGCAGAGGCGGCAGCCUUCGGUGGCGCGAUAGCGCCGACGUUCUCAACUAUGACACGCAAAACGCGUGCUGCGUUGAAUGGAGUUUAUCAUG [A97G C131G] | -3.21
29 | GGAUCUUCUCGAUCUAACAAAAAAGACAAAUCUGCCACAAAGCUUGAGAGCAUCUUCGGAUGCAGAGGCGGCAGCCUUCGGUGGCGCGAUAGCGCCAGCGUUCUCAACUAUGACACGCAAAACGCGUACUCCGUUGAAUGGAGUUUAUCAUG [A98G G128A] | -3.02
30 | GGAUCUUCUCGAUCUAACAAAAAAGACAAAUCUGCCACAAAGCUUGAGAGCAUCUUCGGAUGCAGAGGCGGCAGCCUUCGGUGGCGCGAUAGCGCUAACGUUCUCAACUAUGACACGCAAAACGCGUGCUCCGUUGAAUGGACUUUAUCAUG [C96U G143C] | -3.12
31 | GGAUCUUCUCGAUCUAACAAAAAAGACAAAUCUGCCACAAAGCUUGAGAGCAUCUUCGGAUGCAGAGGCGGCAGCCUUCGGUGGCGCGAUAGCGCCAGCUUGCUCAACUAUGACACGCAAAACGCGUGCUCCGUUGAAUGGAGUUUAACAUG [A98G G100U U102G U148A] | ≤ -4.2
32 | GGAUCUUCUCGAUCUAACAAAAAAGACAAAUCUGCCACAAAGCUUGAGAGCAUCUUCGGAUGCAGAGGCGGCAGCCUUCGGUGGCGCGAUAGCGCAAACGUUCUCAACUAUGACACGCAAAACGUGUGCUCCGUUGAAUGGAAUUUAUCAUG [C96A C125U G143A] | -3.57
33 | GGAUCUUCUCGAUCUAACAAAAAAGACAAAUCUGCCACAAAGCUUGAGAGCAUCUUCGGAUGCAGAGGCGGCAGCCUUCGGUGGCGCGAUAGCGCCUACGUUCUCAACUAUGACACUCAAAACGCGUGCUCCGUUGAAUGGAGUUUAUCAUG [A97U G117U] | -1.25
34 | GGAUCUUCUCGAUCUAACAAAAAAGACAAAUCUGCCACAAAGCUUGAGAGCAUCUUCGGAUGCAGAGGCGGCAGCCUUCGGUGGCGCGAUAGCGCUAACGUUCUCAACUAUGACACGCAAAACGAGUACUCCGAUGAAUGGUGUUUAUCAUG [C96U C125A G128A U134A A142U] | ≤ -4.2
35 | GGAUCUUCUCGAUCUAACAAAAAAGACAAAUCUGCCACAAAGCUUGAGAGCAUCUUCGGAUGCAGAGGCGGCAGCCUUCGGUGGCGCGAUAGCGCGAACGUUCUCAACUAUGACACGCAACACGCGUGUUCCGUUGAAUGGAGUUUAUCAUG [C96G A121C C129U] | -0.0949
36 | GGAUCUUCUCGAUCUAACAAAAAAGACAAAUCUGCCACAAAGCUUGAGAGCAUCUUCGGAUGCAGAGGCGGCAGCCUUCGGUGGCGCGAUAGCGCGAACGUUCUCAACUAUGACACGCAAAACGCGUGCUCCGUUGAAUGCAGUUUAUCAUG [C96G G141C] | -0.919
37 | GGAUCUUCUCGAUCUAACAAAAAAGACAAAUCUGCCACAAAGCUUGAGAGCAUCUUCGGAUGCAGAGGCGGCAGCCUUCGGUGGCGCGAUAGCGCCAGCGUUCUCAACUAUGACACGCAAAACGCGUGCUCGGUUCAAUGGAGUUUAUCAUG [A98G C132G G136C] | -4.12
38 | GGAUCUUCUCGAUCUAACAAAAAAGACAAAUCUGCCACAAAGCUUGAGAGCAUCUUCGGAUGCAGAGGCGGCAGCCUUCGGUGGCGCGAUAGCGCUAACGUUCUCAACUAUGACUCGCAAAACGCGUGCUCCGUUGAAUGGAGUUUGUCAUG [C96U A115U A147G] | ≤ -4.2
